# The supplement of paper PMC8728848
# The list shows a part of the results.
# Assays:
# Assay in all cases: glycan array binding signal (z-score within array); higher = stronger binding
# Conditions in all cases: glycan notation: IUPAC condensed, linker removed
# Gal3S6S(b1-4)GlcNAc6S = target: Gal3S6S(b1-4)GlcNAc6S
# Procedure, shortened: (§1)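 Arrays were curated from the Consortium for Functional Glycomics database, 3228 in total, and kept only where the protein sequence was available. Binding is expressed as a within-array Z-score. This score was averaged across arrays of the same protein sequence at different concentrations or buffers and across linkers, and negative values can be read as non-binding.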
# Gal4S(b1-4)GlcNAc = target: Gal4S(b1-4)GlcNAc
# Procedure, shortened: as §1
# Gal4S6S(b1-4)GlcNAc = target: Gal4S6S(b1-4)GlcNAc
# Procedure, shortened: as §1
# Gal6S(b1-4)Glc = target: Gal6S(b1-4)Glc
# Procedure, shortened: as §1
# Gal6S(b1-4)Glc6S = target: Gal6S(b1-4)Glc6S
# Procedure, shortened: as §1
# Gal6S(b1-4)GlcNAc = target: Gal6S(b1-4)GlcNAc
# Procedure, shortened: as §1
# Gal6S(b1-4)GlcNAc6S = target: Gal6S(b1-4)GlcNAc6S
# Procedure, shortened: as §1
# GalNAc(a1-3)Gal = target: GalNAc(a1-3)Gal
# Procedure, shortened: as §1
# GalNAc(a1-3)GalNAc = target: GalNAc(a1-3)GalNAc
# Procedure, shortened: as §1
# GalNAc(b1-3)Gal = target: GalNAc(b1-3)Gal
# Procedure, shortened: as §1
# [1] = target: GalNAc(b1-3)Gal(a1-4)Gal(b1-4)GlcNAc
# Procedure, shortened: as §1
# [2] = target: GalNAc(b1-3)Gal(a1-4)Gal(b1-4)GlcNAc(b1-3)Gal(b1-4)Glc
# Procedure, shortened: as §1
# GalNAc(b1-3)GalNAc = target: GalNAc(b1-3)GalNAc
# Procedure, shortened: as §1
# GalNAc(b1-4)GlcNAc = target: GalNAc(b1-4)GlcNAc
# Procedure, shortened: as §1
# [3] = target: GalNAc(b1-4)GlcNAc(b1-2)Man(a1-3)[GalNAc(b1-4)GlcNAc(b1-2)Man(a1-6)]Man(b1-4)GlcNAc(b1-4)GlcNAc
# Procedure, shortened: as §1
# Glc(a1-4)Glc = target: Glc(a1-4)Glc
# Procedure, shortened: as §1
# Glc(a1-6)Glc(a1-6)Glc = target: Glc(a1-6)Glc(a1-6)Glc
# Procedure, shortened: as §1
# Glc(b1-4)Glc = target: Glc(b1-4)Glc
# Procedure, shortened: as §1
# Glc(b1-6)Glc = target: Glc(b1-6)Glc
# Procedure, shortened: as §1
# GlcA(b1-3)Gal = target: GlcA(b1-3)Gal
# Procedure, shortened: as §1
# GlcA(b1-3)GlcNAc = target: GlcA(b1-3)GlcNAc
# Procedure, shortened: as §1
# GlcA(b1-6)Gal = target: GlcA(b1-6)Gal
# Procedure, shortened: as §1
# [4] = target: GlcNAc(a1-3)Gal(b1-4)GlcNAc
# Procedure, shortened: as §1
# [5] = target: GlcNAc(a1-4)Gal(b1-3)GlcNAc
# Procedure, shortened: as §1
# [6] = target: GlcNAc(a1-4)Gal(b1-4)GalNAc
# Procedure, shortened: as §1
# [7] = target: GlcNAc(a1-4)Gal(b1-4)GlcNAc
# Procedure, shortened: as §1
# [8] = target: GlcNAc(a1-4)Gal(b1-4)GlcNAc(b1-3)Gal(b1-4)Glc
# Procedure, shortened: as §1
# [9] = target: GlcNAc(a1-4)Gal(b1-4)GlcNAc(b1-3)Gal(b1-4)GlcNAc
# Procedure, shortened: as §1
# [10] = target: GlcNAc(a1-4)Gal(b1-4)GlcNAc(b1-3)Gal(b1-4)GlcNAc(b1-3)Gal(b1-4)GlcNAc
# Procedure, shortened: as §1
# [11] = target: GlcNAc(a1-4)Gal(b1-4)GlcNAc(b1-3)Gal(b1-4)[Fuc(a1-3)]GlcNAc(b1-3)Gal(b1-4)[Fuc(a1-3)]GlcNAc
# Procedure, shortened: as §1
# [12] = target: GlcNAc(a1-6)Gal(b1-4)GlcNAc
# Procedure, shortened: as §1
# [13] = target: GlcNAc(b1-2)Gal(b1-3)GalNAc
# Procedure, shortened: as §1
# [14] = target: GlcNAc(b1-2)Man(a1-3)[GlcNAc(b1-2)Man(a1-6)]Man(b1-4)GlcNAc(b1-4)GlcNAc
# Procedure, shortened: as §1
# [15] = target: GlcNAc(b1-2)Man(a1-3)[GlcNAc(b1-2)Man(a1-6)]Man(b1-4)GlcNAc(b1-4)[Fuc(a1-6)]GlcNAc
# Procedure, shortened: as §1
# GlcNAc(b1-3)Gal = target: GlcNAc(b1-3)Gal
# Procedure, shortened: as §1
# [16] = target: GlcNAc(b1-3)Gal(b1-3)GalNAc
# Procedure, shortened: as §1
# GlcNAc(b1-3)Gal(b1-4)Glc = target: GlcNAc(b1-3)Gal(b1-4)Glc
# Procedure, shortened: as §1
# [17] = target: GlcNAc(b1-3)Gal(b1-4)GlcNAc
# Procedure, shortened: as §1
# [18] = target: GlcNAc(b1-3)Gal(b1-4)GlcNAc(b1-3)Gal(b1-4)GlcNAc
# Procedure, shortened: as §1
# GlcNAc(b1-3)GalNAc = target: GlcNAc(b1-3)GalNAc
# Procedure, shortened: as §1
# GlcNAc(b1-3)Man = target: GlcNAc(b1-3)Man
# Procedure, shortened: as §1
# [19] = target: GlcNAc(b1-3)[GlcNAc(b1-4)][GlcNAc(b1-6)]GlcNAc
# Procedure, shortened: as §1
# [20] = target: GlcNAc(b1-3)[GlcNAc(b1-6)]Gal(b1-4)GlcNAc
# Procedure, shortened: as §1
# [21] = target: GlcNAc(b1-3)[GlcNAc(b1-6)]GalNAc
# Procedure, shortened: as §1
# [22] = target: GlcNAc(b1-4)Gal(b1-4)GlcNAc
# Procedure, shortened: as §1
binder,measurement,setting,value
"DC-SIGN (Canis lupus), XP_853402 (protein) AGLCRPCPWKWELFQESCYFFSQTQNTWKESISACQNLRAQLVIINSTEEQKFLKSWNTRNNQRTWIGLSDHHNEGSWKWVDNTPLQLSFWKEGEPNNHGDEDCVELYSDGWNDNRCSTENFWICKKPSSPCPGPGLNDIFEAQKIEWHE",glycan array binding signal (z-score),Gal3S6S(b1-4)GlcNAc6S,-0.119
same,glycan array binding signal (z-score),Gal4S(b1-4)GlcNAc,-0.215
same,glycan array binding signal (z-score),Gal4S6S(b1-4)GlcNAc,0.055
same,glycan array binding signal (z-score),Gal6S(b1-4)Glc,-0.143
same,glycan array binding signal (z-score),Gal6S(b1-4)Glc6S,-0.246
same,glycan array binding signal (z-score),Gal6S(b1-4)GlcNAc,-0.003
same,glycan array binding signal (z-score),Gal6S(b1-4)GlcNAc6S,-0.191
same,glycan array binding signal (z-score),GalNAc(a1-3)Gal,0.043
same,glycan array binding signal (z-score),GalNAc(a1-3)GalNAc,0.12
same,glycan array binding signal (z-score),GalNAc(b1-3)Gal,-0.329
same,glycan array binding signal (z-score),[1],-0.174
same,glycan array binding signal (z-score),[2],-0.281
same,glycan array binding signal (z-score),GalNAc(b1-3)GalNAc,-0.154
same,glycan array binding signal (z-score),GalNAc(b1-4)GlcNAc,-0.21
same,glycan array binding signal (z-score),[3],0.245
same,glycan array binding signal (z-score),Glc(a1-4)Glc,-0.184
same,glycan array binding signal (z-score),Glc(a1-6)Glc(a1-6)Glc,-0.186
same,glycan array binding signal (z-score),Glc(b1-4)Glc,-0.253
same,glycan array binding signal (z-score),Glc(b1-6)Glc,-0.291
same,glycan array binding signal (z-score),GlcA(b1-3)Gal,-0.227
same,glycan array binding signal (z-score),GlcA(b1-3)GlcNAc,-0.201
same,glycan array binding signal (z-score),GlcA(b1-6)Gal,-0.19
same,glycan array binding signal (z-score),[4],-0.177
same,glycan array binding signal (z-score),[5],0.018
same,glycan array binding signal (z-score),[6],-0.115
same,glycan array binding signal (z-score),[7],-0.136
same,glycan array binding signal (z-score),[8],-0.428
same,glycan array binding signal (z-score),[9],0.148
same,glycan array binding signal (z-score),[10],-0.272
same,glycan array binding signal (z-score),[11],1.73
same,glycan array binding signal (z-score),[12],-0.105
same,glycan array binding signal (z-score),[13],-0.134
same,glycan array binding signal (z-score),[14],-0.156
same,glycan array binding signal (z-score),[15],0.048
same,glycan array binding signal (z-score),GlcNAc(b1-3)Gal,-0.308
same,glycan array binding signal (z-score),[16],0.027
same,glycan array binding signal (z-score),GlcNAc(b1-3)Gal(b1-4)Glc,-0.235
same,glycan array binding signal (z-score),[17],-0.185
same,glycan array binding signal (z-score),[18],-0.17
same,glycan array binding signal (z-score),GlcNAc(b1-3)GalNAc,-0.087
same,glycan array binding signal (z-score),GlcNAc(b1-3)Man,-0.182
same,glycan array binding signal (z-score),[19],-0.27
same,glycan array binding signal (z-score),[20],-0.336
same,glycan array binding signal (z-score),[21],-0.161
same,glycan array binding signal (z-score),[22],-0.111
